Results published in PubChem BioAssay AID686971 (National Center for Advancing Translational Sciences (NCATS), 2013).
In all, about 360,000 compounds went through this assay and about 7,500 (2.1%) were called active. Inconclusive results, whose numbers are uncertain, are shown with a selection of clear calls. Calls come from the whole dose curve; as a rule, active = well fitted cell-killing curve with a large enough effect; inconclusive = small, poorly fitted or top-dose-only effect, or effect the other way, or another doubt; inactive = no such curve, though single readings can be large or run the other way. No potency is given beside an inconclusive call; the fits are too rough.

Assay: qHTS for induction of synthetic lethality in tumor cells producing 2HG: qHTS for the HT-1080-IDH1KD cell line
Details: HT-1080 IDH1 knockdown viability, ATP luminescence, 48 h; activity, negative = toxicity: at 46.1 µM (top of the series) unless noted
Description: Unbiased genomic sequencing for 22 glioma genomes found recurrent mutation of IDH1 on chromosome 2q33, a gene encoding the cytosolic isoform of IIDH1 associated with the tri-carboxylic acid cycle (TCA) that catalyzes the oxidative decarboxylation of isocitrate, yielding alpha-ketoglutarate and CO2 via NADP+ to NADPH conversion. Subsequent studies confirmed the recurrent IDH mutations in up to 70% of secondary gliomas and in 10% of AML cases. In addition, the somatic mutation of cancer-associated IDH1 is a point mutation resulting in various amino-acid substituents at Arginine132 (IDH1 R132), a key residue found in the enzyme's active site that when mutated, results in the loss-of-function in metabolizing isocitrate but confers a gain-of-function to produce the oncometabolite 2-hydroxyglutarate (2HG). This in effect defines IDH1 as an oncogene and provides an extraordinary opportunity to discover chemical probes against mutant IDH1 that may translate into much needed new therapies for glioma and AML patients.
This assay aims to perform a synthetic-lethal screen for chemical probes specific for 2HG-producing tumor cells using matched paired cell lines (1) HT-1080-NT fibrosarcoma cell line that overproduces 2HG and (2) HT-1080-IDH1KD cell line which has IDH1 expression knocked-down. Desirable compounds are toxic to the NT fibrosarcoma cell line but not to the IDH1KD cell line. The data in this AID corresponds to the results of the qHTS against the HT-1080 IDH1KD cell line.
[1] Dang L, Jin S, Su SM. IDH mutations in glioma and acute myeloid leukemia. Trends of Mol Med. 2010; 16(9): 387-97.
[2] Dang L et al. Cancer-associated IDH1 mutations produce 2-hydroxyglutarate. Nature. 2010; 465(7300):966.
Molecular Libraries Probe Production Centers Network [MLPCN]
NIH Chemical Genomics Center [NCGC]
Assay Submitter (PI): Lenny Dang Ph.D., Agios Pharmaceuticals
Suspensions of trypsinized HT-1080-IDH1KD cells were dispensed into white, tissue culture-treated, solid 1536-well plates at 5uL/well (750 cells/well final concentration) in RPMI medium supplemented with 5% FBS. Plates were incubated at 37 degrees C for 2 hours, after which 23 nL of compounds or DMSO were delivered to each well using a pin tool. Plates were then incubated at 37 degrees C for an additional 48 hours. CellTiter-Glo viability reagent (Promega) was dispensed into wells (2.5uL/well) and incubated at room temperature for 10 minutes. The plates were measured on a PerkinElmer ViewLux plate reader for luminescent signal (clear filter, 1 sec exp.). DMSO-treated control wells and media-only (no cells) control wells were used to normalize %Activity of identified toxic compounds; DMSO-treated wells corresponded to 0%Activity (100% viability), while media-only controls were used to normalize 100%Activity (0% viability). To minimize variability between cell lines, both HT-1080-NT and HT-1080-IDH1KD lines were dispensed and treated with identical compound series in single batches.
Concentration-response curves were fitted to the signals arising from the resulting luminescence. The concentration-effect curves were then classified based on curve quality (r2), response magnitude and degree of measured activity, and compounds were subsequently categorized based on their curve class.
Potency is the fitted concentration of half-maximal effect; tags give direction and shape of the fitted curve.

Structure (SMILES)	Potency	activity, negative = toxicity
CCOc1ncccc1C(=O)NCc1ccc(OC)cc1	active: 8.91 µM	
Cc1ccc(NC(=O)CSc2n[nH]c(-c3cccnc3)n2)cc1Cl		inactive: -20.7%
CCN(CC)CCCNC(=O)c1[nH]c2ccccc2c1Sc1ccc(Cl)cc1	active: 16.4 µM	
COc1cc(Br)cc(CNc2ccc(F)c([N+](=O)[O-])c2)c1O	inconclusive [cytotoxic, single point]	
N=c1c2c(n(Cc3cccc(Cl)c3)c3c1CCC3)CCCC2	active: 10 µM	
CN(C)c1ccc(C(=O)N(Cc2ccccc2)Cc2ccccc2)cc1		inactive: -18.5%
COc1ccc(-c2csc(C(C)(O)c3ccccc3)n2)cc1 (configuration not stated)	inconclusive [cytotoxic, partial curve]	
Cc1ccccc1NC(=O)CSc1nc2cc3c(cc2cc1C)CCC3	inconclusive [cytotoxic, partial curve, poor fit]	
Cc1c(CNC(=O)c2c([N+](=O)[O-])cnn2C)cnn1C		inactive: -1.58%
c1ccc2c(c1)CC1(CCCC1)n1nnnc1-2		inactive: 2.1%
Cc1cccc(/C=N/NC(=O)c2c(-c3ccccc3)noc2C)c1O	inconclusive [cytotoxic, full curve]	
Cc1cc(C)c(CN2CCN(C(=O)Cn3cnc4c(OCc5ccccc5)ncnc43)CC2)c(C)c1	inconclusive [cytotoxic, single point]	
Cc1ccc(-n2nc(C)c3c(C)c(CCC(=O)NCc4ccco4)c(C)nc32)cc1		inactive: -0.756%
CC(C)(C)c1ccc(S(=O)(=O)NC(=O)C2(C)CCN2C(=O)Cc2ccc(-c3ccccc3)cc2)cc1 (configuration not stated)	inconclusive [cytotoxic, single point]	
CCCc1ccc(Oc2cn[nH]c2-c2ccc(O)cc2O)cc1	inconclusive [cytotoxic, single point]	
CCN(CC)CCCNC(=O)c1ccc2c(Cl)c3c(nc2c1)CCCC3	active: 29.1 µM	
Cc1cccc(-c2nc(CSCC(=O)NCc3cccs3)c(C)o2)c1		inactive: -10.3%
c1ccc(CN2CCC3(CCCc4ccccc43)CC2)cc1	active: 16.4 µM	
CNCC[C@@H](Oc1ccccc1C)c1ccccc1	inconclusive [cytotoxic, partial curve, poor fit]	
CCN(CC)S(=O)(=O)c1cc(NC(=O)CSc2n[nH]c(N)n2)ccc1C		inactive: 9.38%
CCC(=O)N1CCc2cc(Br)cc(S(=O)(=O)CCC(=O)NCCc3ccccc3)c21		inconclusive: -9.63% [cytotoxic]
CCc1ccc(NS(=O)(=O)c2ccc3[nH]cc(C(=O)N(C)Cc4ccco4)c(=O)c3c2)cc1		inactive: -11.8%
Cc1cc(C(=O)C(=O)N(C)C)c(C)n1-c1ccc(Cl)cc1		inactive: -2.03%
CC(C)(C)NC(=O)c1ccc2c(c1)C1C3CCC(C3)C1C(c1ccccc1)N2 (configuration not stated)		inactive: -3.56%
COc1ccc(NC(=O)N2CCCC(c3nc(-c4ccc(C(C)C)cc4)no3)C2)cc1 (configuration not stated)	inconclusive [cytotoxic, single point]	
CCc1nc2c(OCc3ccc(Cl)cc3Cl)cccn2c1N(C)C(=O)c1ccccc1F	inconclusive [cytotoxic, single point]	

Structure (SMILES)	Potency	activity, negative = toxicity
CCOc1ccccc1C(=O)N1c2ccccc2Sc2ccccc21	inconclusive [cytotoxic, single point]	
CCN(CC)CCCNC(=O)c1cc(Nc2ccc(OC)cc2)nc2ccccc12	inconclusive [cytotoxic, single point]	
COc1ccc(-c2n[nH]c(C)c2-c2ccc(Cl)cc2)c(O)c1	active: 20.6 µM	
Cc1ccc2nc(-c3ccc(NC(=O)CN4CCN(C(=O)c5ccco5)CC4)cc3)sc2c1	inconclusive [cytotoxic, single point]	
CCOc1ccc(C2C=C(c3ccc(C)cc3)Nc3nnnn32)cc1 (configuration not stated)	active: 13 µM	
Fc1ccc(NC(=S)NC23CN4CN(CN(C4)C2)C3)cc1		inactive: 1.94%
Oc1cccc(Nc2nc(N3CCOCC3)nc(N3CCOCC3)n2)c1	inconclusive [cytotoxic, partial curve]	
O=C(Nc1ccc(F)cc1)N1CCN(C/C=C/c2ccccc2)CC1		inactive: -4.15%
O=C(Nc1ccc2ccccc2c1)c1ccc(Br)o1	inconclusive [cytotoxic, partial curve]	
COc1ccc(-n2nc3ccc(NS(C)(=O)=O)cc3n2)cc1Cl	inconclusive [cytotoxic, single point]	
CCCCNC(=O)c1c[nH]c2ccc(S(=O)(=O)N3CCOCC3)cc2c1=O	inconclusive [cytotoxic, full curve, poor fit]	
COc1ccc2c(c1)c1nnc(SCC(=O)Nc3ccccc3F)nc1n2C		inactive: -0.688%
O=C(C1CCC(CNS(=O)(=O)c2cccc3nsnc23)CC1)N1CC=C(c2ccccc2)CC1 (configuration not stated)	inconclusive [cytotoxic, single point]	
C=CCn1nc(C(=O)Nc2ccc(OC)cc2)cc1-c1sc(NC(=O)c2ccccc2)nc1C		inactive: -24.4%
O=C(NNC(=S)NC(=O)c1ccccc1)c1cccc([N+](=O)[O-])c1	inconclusive [cytotoxic, partial curve]	
COc1ccc(OC)c(Nc2nc(NCCCN(C)C)nc(N)c2[N+](=O)[O-])c1	active: 16.4 µM	
Cn1c(=O)c(=O)n(C)c2cc([N+](=O)[O-])c([N+](=O)[O-])cc21	inconclusive [cytotoxic, single point]	
CCn1cc(C(=O)N(C)c2ccc(OC)cc2OC)c2cc(OC)c(OC)cc2c1=O		inactive: 6.66%
Cn1cc(S(=O)(=O)NC[C@H]2O[C@@H](n3ccc(=O)[nH]c3=O)[C@H](O)[C@@H]2O)cn1		inactive: 11.1%
COc1ccc(Cl)cc1NC(=O)C(C)N1CCN(C/C=C/c2ccccc2)CC1 (configuration not stated)	inconclusive [cytotoxic, single point]	
O=C(/C=C/c1ccc([N+](=O)[O-])cc1)c1cccnc1	inconclusive [cytotoxic, single point]	
OC(c1ccccc1)(c1ccccc1)C1CCN(CCCOc2cccc(OC(F)(F)F)c2)CC1	active: 16.4 µM	
Cc1c(C(N)=O)sc2ncn(CC(=O)N(C)C3CCCCC3)c(=O)c12		inactive: 3.8%
O=C(c1cccc2nc3ccccc3nc12)N1CCOCC1		inactive: 9.51%
O=C(/C=C/c1cccc([N+](=O)[O-])c1)c1cccs1	active: 16.4 µM	
O=C1c2ccccc2C2=Nc3ccccc3SC(c3ccccc3F)C12 (configuration not stated)	inconclusive [cytotoxic, single point]	

Structure (SMILES)	Potency	activity, negative = toxicity
COC(=O)c1cc(OC)c(OC)cc1NC(=O)Nc1ccccc1OC		inactive: -0.677%
Nc1nonc1-n1nnc(C(=O)N/N=C/c2ccccc2F)c1CN1CCc2ccccc21		inactive: -4.06%
CC(Cc1ccc(O)c(O)c1)C(C)Cc1ccc(O)c(O)c1 (configuration not stated)	inconclusive [cytotoxic, single point]	
CCN(CC)S(=O)(=O)c1cccc(C(=O)Nc2nc3cc4c(cc3s2)OCCO4)c1	inconclusive [cytotoxic, single point]	
CCC(C)N1C(=O)CCC1C(=O)O (configuration not stated)		inactive: -0.194%
C[C@]12CCC(=O)CC1CCC1C2CC[C@@]2(C)C1CC[C@@]21CCO1 (some centres not stated)	inconclusive [cytotoxic, single point]	
Cc1ccccc1N/C=C/C(=C(C#N)C#N)N(C)C		inconclusive: 32.1%
CCC1CCCCN1S(=O)(=O)c1ccc(C(=O)Nc2nnc(C3CC3)o2)cc1 (configuration not stated)	inconclusive [cytotoxic, partial curve]	
Cc1ccccc1NC(=O)N1CCNC(=O)C1CC(=O)Nc1cc(Cl)ccc1Cl (configuration not stated)		inactive: -18.7%
CCN(c1ccccc1)S(=O)(=O)c1ccc(C(=O)Nc2cccc(C)n2)cc1		inactive: -14.5%
CCOC(=O)c1csc(-c2ccc3c(c2)CCO3)n1		inconclusive: 22.1%
Fc1ccc(-[n+]2nc(Nc3ccccc3)sc2-c2c3ccccc3cc3ccccc23)cc1	active: 23.1 µM	
CC(C)CCNC(=O)NC(=O)COC(=O)/C=C/c1cnc2ccccc2n1		inactive: 10.6% [at 9.24 µM]
COc1ccc(-c2cc(C(=O)NCC(c3ccccc3)N(C)C)c3ccccc3n2)cc1OC (configuration not stated)	inconclusive [cytotoxic, single point]	
Brc1ccccc1-c1nnc(CSc2nncn2-c2ccccc2)o1		inactive: 1.25%
Cc1ccc(Cn2cc(CN3CC(N4CCSCC4)CS3(=O)=O)nn2)cc1 (configuration not stated)		inconclusive: 0.137% [cytotoxic]
COc1ccc(OCc2cc(C(=O)N(C)C(C)c3ccon3)no2)c(Cl)c1 (configuration not stated)		inactive: 11.6%
COc1cc(OC)c(N2CC(C(=O)Nc3cc(Cl)ccc3N3CCOCC3)CC2=O)cc1Cl (configuration not stated)	inconclusive [cytotoxic, full curve]	
COc1ccc2oc(-c3ccccc3[N+](=O)[O-])cc(=O)c2c1	active: 6.51 µM	
CN(C)CC/C=C1/c2ccc(F)cc2Sc2ccc(Cl)cc21	active: 18.4 µM	
C[C@@H]1ON(C)[C@H]2C[C@H]3c4[nH]c5ccccc5c4CCN3C(=O)[C@@H]12		inactive: 1.92%
Cc1ccc2cccc(N=Cc3c(C)[nH]n(-c4ccccc4)c3=O)c2n1	inconclusive [cytotoxic, partial curve]	
COc1ccc(C(C)=O)cc1Cn1c(C)c(C(=O)NCc2cccc(C(F)(F)F)c2)sc1=O	inconclusive [cytotoxic, single point]	
Cc1csc(=O)n1CCC(=O)OCC(=O)c1ccc(Br)cc1		inactive: -3.52%
COc1ccc(/C=C/C(=O)Nc2cccc(S(=O)(=O)NC3=NCCCCC3)c2)cc1OC		inactive: -11.8%
